The source of these data is PubChem BioAssay (NCI).

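1) Cells in 96-well plates. 2) Compound, 48 h, 5 concentrations. 3) Linear interpolation between surrounding doses. 4) Unreached endpoint = highest concentration. Abbreviation: GI50, concentration required for 50% inhibition of growth. At the TGI there is no net growth.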

For this assay, the system named is NCI-H322M lung. Nature of the assay: growth of human tumour cells (NCI), 48 h.
On to `O=C1NC(=O)c2c1c1c3ccccc3ccc1c1[nH]c3ccccc3c21`, for which the GI50 is 0.539 µM and the TGI was more than 100 µM.

Consider `CCOc1ccc(-c2nnc(C3CC(NC(=O)c4cccc5nccnc45)C3)n2-c2ccccc2F)nc1` (stereo unspecified), for which the GI50 was 26.5 µM and the TGI was more than 100 µM.

For the molecule `C/C(=N\NC(=S)Nc1ccc(Br)cc1)c1cc2ccccc2oc1=O`, the GI50 was 1.39 µM and the TGI was 27.4 µM.
